In PMC5030362 one finds binding data, which are given here for eleven molecules.

Chains of the proteins cited; added tags and fusions are not shown.
UniProt P03129: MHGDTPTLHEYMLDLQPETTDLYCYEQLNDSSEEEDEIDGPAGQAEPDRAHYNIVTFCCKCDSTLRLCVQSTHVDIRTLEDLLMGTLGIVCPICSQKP
UniProt P06788: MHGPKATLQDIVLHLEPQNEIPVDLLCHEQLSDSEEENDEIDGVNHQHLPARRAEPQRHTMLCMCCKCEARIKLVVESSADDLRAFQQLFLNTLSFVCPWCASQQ
UniProt Q5T4S7: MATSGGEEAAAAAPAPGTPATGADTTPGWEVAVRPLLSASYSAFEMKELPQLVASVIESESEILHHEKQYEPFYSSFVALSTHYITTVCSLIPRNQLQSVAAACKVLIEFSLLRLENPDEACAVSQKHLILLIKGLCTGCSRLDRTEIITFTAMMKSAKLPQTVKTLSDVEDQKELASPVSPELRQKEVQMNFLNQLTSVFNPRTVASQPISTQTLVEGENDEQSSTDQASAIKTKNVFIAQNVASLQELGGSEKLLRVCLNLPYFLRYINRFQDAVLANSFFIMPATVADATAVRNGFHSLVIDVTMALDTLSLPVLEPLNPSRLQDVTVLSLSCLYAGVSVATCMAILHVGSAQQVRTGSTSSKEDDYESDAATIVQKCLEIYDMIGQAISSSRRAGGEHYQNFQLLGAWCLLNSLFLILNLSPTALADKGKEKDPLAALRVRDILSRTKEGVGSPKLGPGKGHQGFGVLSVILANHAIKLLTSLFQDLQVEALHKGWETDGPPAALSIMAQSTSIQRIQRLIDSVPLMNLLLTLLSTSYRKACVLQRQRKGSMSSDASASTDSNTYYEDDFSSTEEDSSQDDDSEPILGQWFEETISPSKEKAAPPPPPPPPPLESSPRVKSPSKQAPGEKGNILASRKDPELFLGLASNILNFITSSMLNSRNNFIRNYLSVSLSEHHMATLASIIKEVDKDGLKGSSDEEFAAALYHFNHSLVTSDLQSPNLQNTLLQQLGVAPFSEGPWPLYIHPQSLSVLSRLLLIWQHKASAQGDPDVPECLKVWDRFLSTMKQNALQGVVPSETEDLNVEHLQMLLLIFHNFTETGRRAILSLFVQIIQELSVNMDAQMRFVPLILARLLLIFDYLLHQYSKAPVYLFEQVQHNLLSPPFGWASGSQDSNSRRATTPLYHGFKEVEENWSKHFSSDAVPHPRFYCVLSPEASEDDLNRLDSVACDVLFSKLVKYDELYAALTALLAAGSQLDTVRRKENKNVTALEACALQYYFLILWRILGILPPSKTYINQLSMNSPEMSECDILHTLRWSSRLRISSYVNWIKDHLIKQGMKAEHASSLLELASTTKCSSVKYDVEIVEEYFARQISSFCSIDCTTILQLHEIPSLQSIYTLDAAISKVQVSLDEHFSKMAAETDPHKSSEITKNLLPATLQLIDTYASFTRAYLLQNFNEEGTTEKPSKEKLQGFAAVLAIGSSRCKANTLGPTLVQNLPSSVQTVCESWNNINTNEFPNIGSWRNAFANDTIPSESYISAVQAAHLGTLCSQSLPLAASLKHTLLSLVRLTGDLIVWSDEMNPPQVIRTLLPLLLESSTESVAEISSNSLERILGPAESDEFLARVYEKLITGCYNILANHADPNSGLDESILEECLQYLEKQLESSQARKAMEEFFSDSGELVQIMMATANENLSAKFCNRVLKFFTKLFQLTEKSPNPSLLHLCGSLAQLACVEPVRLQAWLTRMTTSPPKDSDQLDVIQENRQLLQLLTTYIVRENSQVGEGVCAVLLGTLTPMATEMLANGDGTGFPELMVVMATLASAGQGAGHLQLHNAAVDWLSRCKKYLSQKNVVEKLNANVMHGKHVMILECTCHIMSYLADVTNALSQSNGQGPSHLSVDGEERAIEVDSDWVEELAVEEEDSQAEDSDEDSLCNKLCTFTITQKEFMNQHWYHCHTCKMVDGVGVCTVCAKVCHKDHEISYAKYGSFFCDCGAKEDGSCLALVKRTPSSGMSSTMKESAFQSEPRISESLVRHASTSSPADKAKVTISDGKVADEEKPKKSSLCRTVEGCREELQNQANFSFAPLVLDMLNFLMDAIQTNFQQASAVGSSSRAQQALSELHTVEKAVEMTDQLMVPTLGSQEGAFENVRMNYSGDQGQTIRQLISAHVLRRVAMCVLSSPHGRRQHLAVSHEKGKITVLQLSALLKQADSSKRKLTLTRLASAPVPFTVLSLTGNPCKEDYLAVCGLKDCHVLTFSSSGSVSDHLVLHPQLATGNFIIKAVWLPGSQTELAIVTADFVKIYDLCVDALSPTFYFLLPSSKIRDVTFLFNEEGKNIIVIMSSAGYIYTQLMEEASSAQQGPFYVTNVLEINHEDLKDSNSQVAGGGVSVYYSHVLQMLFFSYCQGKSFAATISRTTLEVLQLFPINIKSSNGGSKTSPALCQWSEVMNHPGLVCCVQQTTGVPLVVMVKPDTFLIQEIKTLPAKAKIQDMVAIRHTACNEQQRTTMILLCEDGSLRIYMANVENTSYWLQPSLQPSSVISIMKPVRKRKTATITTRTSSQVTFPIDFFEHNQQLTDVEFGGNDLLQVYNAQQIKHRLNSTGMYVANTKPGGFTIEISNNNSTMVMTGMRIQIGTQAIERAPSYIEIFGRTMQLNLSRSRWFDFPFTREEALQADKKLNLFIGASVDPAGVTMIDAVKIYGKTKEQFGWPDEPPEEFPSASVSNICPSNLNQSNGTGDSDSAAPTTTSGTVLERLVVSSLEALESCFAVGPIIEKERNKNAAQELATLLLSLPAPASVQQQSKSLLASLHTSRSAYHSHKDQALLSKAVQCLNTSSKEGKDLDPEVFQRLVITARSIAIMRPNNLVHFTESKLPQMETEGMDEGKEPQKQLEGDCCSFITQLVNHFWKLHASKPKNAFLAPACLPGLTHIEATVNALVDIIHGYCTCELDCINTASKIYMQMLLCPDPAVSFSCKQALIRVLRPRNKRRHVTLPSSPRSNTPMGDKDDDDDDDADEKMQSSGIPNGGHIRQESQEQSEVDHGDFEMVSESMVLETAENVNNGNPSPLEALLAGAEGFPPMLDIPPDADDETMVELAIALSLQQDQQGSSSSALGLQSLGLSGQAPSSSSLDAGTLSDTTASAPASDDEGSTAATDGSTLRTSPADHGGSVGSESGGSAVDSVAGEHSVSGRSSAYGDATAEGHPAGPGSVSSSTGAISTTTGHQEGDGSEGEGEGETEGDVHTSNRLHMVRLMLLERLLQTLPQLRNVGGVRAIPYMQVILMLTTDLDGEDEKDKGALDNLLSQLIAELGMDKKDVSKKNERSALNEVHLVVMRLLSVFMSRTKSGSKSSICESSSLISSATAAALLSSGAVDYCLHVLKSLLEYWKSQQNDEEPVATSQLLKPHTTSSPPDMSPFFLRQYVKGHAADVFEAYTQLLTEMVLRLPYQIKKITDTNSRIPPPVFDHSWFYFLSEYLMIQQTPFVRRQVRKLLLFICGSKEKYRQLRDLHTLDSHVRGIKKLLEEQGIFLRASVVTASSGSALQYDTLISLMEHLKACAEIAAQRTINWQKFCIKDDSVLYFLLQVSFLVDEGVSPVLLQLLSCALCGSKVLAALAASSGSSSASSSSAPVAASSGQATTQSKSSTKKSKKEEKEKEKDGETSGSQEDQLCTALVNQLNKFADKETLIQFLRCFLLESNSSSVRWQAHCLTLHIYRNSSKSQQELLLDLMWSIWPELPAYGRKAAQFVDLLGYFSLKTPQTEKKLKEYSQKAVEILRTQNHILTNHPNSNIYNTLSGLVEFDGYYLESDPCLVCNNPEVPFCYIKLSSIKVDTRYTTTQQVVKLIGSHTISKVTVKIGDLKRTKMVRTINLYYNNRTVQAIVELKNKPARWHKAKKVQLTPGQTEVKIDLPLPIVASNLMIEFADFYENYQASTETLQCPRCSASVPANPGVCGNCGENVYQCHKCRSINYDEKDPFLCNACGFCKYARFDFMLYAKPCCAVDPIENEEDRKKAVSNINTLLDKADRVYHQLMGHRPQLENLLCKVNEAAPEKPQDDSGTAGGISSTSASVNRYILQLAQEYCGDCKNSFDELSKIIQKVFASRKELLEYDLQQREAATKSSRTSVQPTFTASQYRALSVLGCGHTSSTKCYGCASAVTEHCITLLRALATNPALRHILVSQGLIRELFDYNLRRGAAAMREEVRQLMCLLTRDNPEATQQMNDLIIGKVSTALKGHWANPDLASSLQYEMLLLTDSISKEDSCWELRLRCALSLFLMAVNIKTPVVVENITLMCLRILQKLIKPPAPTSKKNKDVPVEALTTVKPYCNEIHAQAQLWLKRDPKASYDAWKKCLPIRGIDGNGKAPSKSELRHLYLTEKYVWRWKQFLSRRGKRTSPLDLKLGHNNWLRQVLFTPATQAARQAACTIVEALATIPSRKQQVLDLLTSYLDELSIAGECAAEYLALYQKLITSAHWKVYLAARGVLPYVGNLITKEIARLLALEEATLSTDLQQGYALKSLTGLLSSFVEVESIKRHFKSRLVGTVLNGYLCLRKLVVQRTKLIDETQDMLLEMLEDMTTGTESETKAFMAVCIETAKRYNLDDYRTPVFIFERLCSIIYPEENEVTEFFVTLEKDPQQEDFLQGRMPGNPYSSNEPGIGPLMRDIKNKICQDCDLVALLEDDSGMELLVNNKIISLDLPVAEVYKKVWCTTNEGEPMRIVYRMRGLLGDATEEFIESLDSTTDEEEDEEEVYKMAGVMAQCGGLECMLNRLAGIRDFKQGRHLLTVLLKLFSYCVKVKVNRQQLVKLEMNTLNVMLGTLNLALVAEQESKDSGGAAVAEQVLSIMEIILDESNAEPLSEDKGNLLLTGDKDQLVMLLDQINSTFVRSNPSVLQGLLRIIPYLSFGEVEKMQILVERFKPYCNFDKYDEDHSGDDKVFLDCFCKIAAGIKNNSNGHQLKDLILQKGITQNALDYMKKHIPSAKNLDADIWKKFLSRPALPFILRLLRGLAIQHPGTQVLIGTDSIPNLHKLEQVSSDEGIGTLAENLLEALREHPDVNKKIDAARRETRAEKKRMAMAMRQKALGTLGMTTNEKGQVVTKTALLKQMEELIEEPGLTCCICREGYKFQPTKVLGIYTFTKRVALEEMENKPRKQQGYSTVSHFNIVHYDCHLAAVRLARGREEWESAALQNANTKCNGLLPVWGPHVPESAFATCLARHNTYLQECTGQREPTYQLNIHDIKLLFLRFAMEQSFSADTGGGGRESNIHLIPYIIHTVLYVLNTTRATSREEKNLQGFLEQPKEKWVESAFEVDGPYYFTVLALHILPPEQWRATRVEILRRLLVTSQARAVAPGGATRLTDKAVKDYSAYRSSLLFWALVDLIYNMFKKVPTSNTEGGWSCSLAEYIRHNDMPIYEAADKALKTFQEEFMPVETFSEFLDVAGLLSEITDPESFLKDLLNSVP

These are yes or no findings as the source states them, for the method shown. In cells and extracts the contact can be indirect. Some results given as binding are weak or reduced against the parent protein; the word gives no strength. For some of these results: Sequences can lack the tags named with a protein.

The target of assay [1] is HPV16 E7-Flag-HA, wild type (human papillomavirus type 16) (UniProt P03129). The experiment in a line: co-IP; N/Tert-1 E7-Flag-HA cells transduced with V5-tagged PTPN14 forms or fragments, harvested 48 h posttransduction; anti-HA immunoprecipitation, Western blot for V5 or PTPN14.
Assay [2] has the same target. The experiment in a line: co-IP; anti-HA agarose immunoprecipitation of HA-tagged E7 from N/Tert-1 cell lysates; endogenous partners detected by Western blot.
Assay [3] deals with T1, HPV1a E7 tagged with Flag and HA (human papillomavirus type 1a) (UniProt P06465).
T1 sequence: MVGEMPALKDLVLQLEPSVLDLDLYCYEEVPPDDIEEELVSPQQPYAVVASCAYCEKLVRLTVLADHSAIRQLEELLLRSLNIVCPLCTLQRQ
Described as above.

Assay [4] addresses HPV16 E7-Flag-HA, wild type (human papillomavirus type 16) (UniProt P03129). The experiment in a line: SEC + co-IP; N/Tert-1 E7 lysate (MCLB: 50 mM Tris pH 7.8, 150 mM NaCl, 0.5% NP-40) fractionated on Superose 6 10/300; even-numbered 0.5-ml fractions used for anti-HA immunoprecipitation, Western blot.
Assay [5] addresses HPV18 E7-Flag-HA, wild type (human papillomavirus type 18) (UniProt P06788). Put plainly: co-IP; N/Tert-1 E7-Flag-HA cells transduced with V5-tagged PTPN14 forms or fragments, harvested 48 h posttransduction; anti-HA immunoprecipitation, Western blot for V5 or PTPN14.

“PTPN14 ΔPTP, N-terminal V5 tag (from UniProt Q15678 1-899) (domain or fragment)”: in assay [1], the binding result is “no binding”.
On to “PTPN14 ΔLinker 3, N-terminal V5 tag (from UniProt Q15678 1-1187)”, for which, in assay [1], the binding result is “binds”.
Still for that read-out and setting: the entry for “PTPN14 ΔLinker 1, N-terminal V5 tag (from UniProt Q15678 1-1187)” is “binds”.
For the molecule “UBR4, endogenous (from UniProt Q5T4S7 1-5183)”, the binding result is reported as “binds” in assay [2], “no binding” in assay [3] and “binds” in assay [4].
In the case of “PTPN14 PTP domain fragment, V5-tagged (from UniProt Q15678 900-1187) (domain or fragment)”, in assay [5], the binding result is reported as “binds”.
With “PTPN14 L2 domain fragment, V5-tagged (from UniProt Q15678 501-801) (domain or fragment)”, in assay [5], the binding entry is recorded as “no binding”.
As for “PTPN14 ΔFERM, N-terminal V5 tag (from UniProt Q15678 342-1187) (domain or fragment)”, the binding entry in assay [1] is “binds”.

B1: RB1, endogenous (protein, UniProt P06400 1-928)
chain: MPPKTPRKTAATAAAAAAEPPAPPPPPPPEEDPEQDSGPEDLPLVRLEFEETEEPDFTALCQKLKIPDHVRERAWLTWEKVSSVDGVLGGYIQKKKELWGICIFIAAVDLDEMSFTFTELQKNIEISVHKFFNLLKEIDTSTKVDNAMSRLLKKYDVLFALFSKLERTCELIYLTQPSSSISTEINSALVLKVSWITFLLAKGEVLQMEDDLVISFQLMLCVLDYFIKLSPPMLLKEPYKTAVIPINGSPRTPRRGQNRSARIAKQLENDTRIIEVLCKEHECNIDEVKNVYFKNFIPFMNSLGLVTSNGLPEVENLSKRYEEIYLKNKDLDARLFLDHDKTLQTDSIDSFETQRTPRKSNLDEEVNVIPPHTPVRTVMNTIQQLMMILNSASDQPSENLISYFNNCTVNPKESILKRVKDIGYIFKEKFAKAVGQGCVEIGSQRYKLGVRLYYRVMESMLKSEEERLSIQNFSKLLNDNIFHMSLLACALEVVMATYSRSTSQNLDSGTDLSFPWILNVLNLKAFDFYKVIESFIKAEGNLTREMIKHLERCEHRIMESLAWLSDSPLFDLIKQSKDREGPTDHLESACPLNLPLQNNHTAADMYLSPVRSPKKKGSTTRVNSTANAETQATSAFQTQKPLKSTSLSLFYKKVYRLAYLRLNTLCERLLSEHPELEHIIWTLFQHTLQNEYELMRDRHLDQIMMCSMYGICKVKNIDLKFKIIVTAYKDLPHAVQETFKRVLIKEEEYDSIIVFYNSVFMQRLKTNILQYASTRPPTLSPIPHIPRSPYKFPSSPLRIPGGNIYISPLKSPYKISEGLPTPTKMTPRSRILVSIGESFGTSEKFQKINQMVCNSDRVLKRSAEGSNPPKPLKKLRFDIEGSDEADGSKHLPGESKFQQKLAEMTSTRTRMQKQKMNDSMDTSNKEEK
Turning to B1, the binding entry in assay [2] and in assay [4] was “binds” in each case.

B2: full-length PTPN14 with an N-terminal V5 tag (protein, UniProt Q15678 1-1187)
chain: MPFGLKLRRTRRYNVLSKNCFVTRIRLLDSNVIECTLSVESTGQECLEAVAQRLELRETHYFGLWFLSKSQQARWVELEKPLKKHLDKFANEPLLFFGVMFYVPNVSWLQQEATRYQYYLQVKKDVLEGRLRCTLDQVIRLAGLAVQADFGDYNQFDSQDFLREYVLFPMDLALEEAVLEELTQKVAQEHKAHSGILPAEAELMYINEVERLDGFGQEIFPVKDNHGNCVHLGIFFMGIFVRNRIGRQAVIYRWNDMGNITHNKSTILVELINKEETALFHTDDIENAKYISRLFATRHKFYKQNKICTEQSNSPPPIRRQPTWSRSSLPRQQPYILPPVHVQCGEHYSETHTSQDSIFHGNEEALYCNSHNSLDLNYLNGTVTNGSVCSVHSVNSLNCSQSFIQASPVSSNLSIPGSDIMRADYIPSHRHSAIIVPSYRPTPDYETVMRQMKRGILHTDSQSQSLRNLNIINTHAYNQPEDLVYSQPEMRERHPYTVPYGPQGVYSNKLVSPSDQRNPKNNVVPSKPGASAISHTVSTPELANMQLQGSHNYSTAHMLKNYLFRPPPPYPRPRPATSTPDLASHRHKYVSGSSPDLVTRKVQLSVKTFQEDSSPVVHQSLQEVSEPLTATKHHGTVNKRHSLEVMNSMVRGMEAMTLKSLHLPMARRNTLREQGPPEEGSGSHEVPQLPQYHHKKTFSDATMLIHSSESEEEEEEAPESVPQIPMLREKMEYSAQLQAALARIPNKPPPEYPGPRKSVSNGALRQDQASLPPAMARARVLRHGPAKAISMSRTDPPAVNGASLGPSISEPDLTSVKERVKKEPVKERPVSEMFSLEDSIIEREMMIRNLEKQKMAGLEAQKRPLMLAALNGLSVARVSGREENRVDATRVPMDERFRTLKKKLEEGMVFTEYEQIPKKKANGIFSTAALPENAERSRIREVVPYEENRVELIPTKENNTGYINASHIKVVVGGAEWHYIATQGPLPHTCHDFWQMVWEQGVNVIAMVTAEEEGGRTKSHRYWPKLGSKHSSATYGKFKVTTKFRTDSVCYATTGLKVKHLLSGQERTVWHLQYTDWPDHGCPEDVQGFLSYLEEIQSVRRHTNSMLEGTKNRHPPIVVHCSAGVGRTGVLILSELMIYCLEHNEKVEVPMMLRLLREQRMFMIQTIAQYKFVYQVLIQFLQNSRLI
In the case of B2, the binding result in assay [1] is reported as “binds”.

B3: full-length PTPN14 with a C-terminal V5 tag (protein, UniProt Q15678 1-1187)
chain: B2 chain
In the case of B3, the binding result in assay [1] is on record as “binds”.

B4: PTPN14, endogenous (protein, UniProt Q15678 1-1187)
chain: B2 chain
As to B4, the binding result in assay [2], in assay [5] and in assay [4] was “binds” in each case.
